The record followed here is the BET-seq Pho4 binding data (Le et al. 2018).

This is one part of the list. Values were computed here from the reads of four pooled replicates and scatter widely.

This experiment has as its target T1, Pho4 (S. cerevisiae) (UniProt P07270).
T1 sequence: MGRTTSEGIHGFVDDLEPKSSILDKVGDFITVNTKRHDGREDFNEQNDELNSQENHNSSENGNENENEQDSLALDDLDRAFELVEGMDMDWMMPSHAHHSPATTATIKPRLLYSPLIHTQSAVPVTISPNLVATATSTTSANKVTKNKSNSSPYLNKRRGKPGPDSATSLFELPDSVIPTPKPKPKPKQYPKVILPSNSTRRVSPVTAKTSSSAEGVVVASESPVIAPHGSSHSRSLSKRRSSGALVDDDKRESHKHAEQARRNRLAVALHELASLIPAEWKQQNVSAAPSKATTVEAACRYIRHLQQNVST
Briefly: relative binding free energy (BET-seq); higher = weaker binding. The settings on record: reference: library average.
For GGTTTCACGTGATATT, the “relative binding free energy” value was found to be 0.41 kcal/mol.

In the case of GGATTCACGTGAAAGG, the “relative binding free energy” value is 0.27 kcal/mol.

For TTTGGCACGTGTCGAA, the “relative binding free energy” value was -0.12 kcal/mol.

As to ATCTGCACGTGTTAAT, the “relative binding free energy” value came to 0 kcal/mol.

Take TTCGTCACGTGTGAAT: the “relative binding free energy” value turned out to be 0.21 kcal/mol.

As to GTCGGCACGTGTGGGT, the “relative binding free energy” value was -0.06 kcal/mol.

Turning to TTATCCACGTGGGGGA, the “relative binding free energy” value was -0.15 kcal/mol.

In the case of TTAGGCACGTGGAGTC, the “relative binding free energy” value is -0.08 kcal/mol.

For the sequence CTAGTCACGTGATAGT, the “relative binding free energy” value was 0.14 kcal/mol.

Turning to TAGGCCACGTGTGGTA, the “relative binding free energy” value is -0.17 kcal/mol.

As to TGCTCCACGTGGAGGT, the “relative binding free energy” value is 0.09 kcal/mol.

Take GGTGTCACGTGGAGCT: the “relative binding free energy” value was determined as 0.14 kcal/mol.

With ATAAGCACGTGTTAGT, the “relative binding free energy” value was -0.1 kcal/mol.

With TTGTTCACGTGTTACA, the “relative binding free energy” value was 0.27 kcal/mol.

For GGAAGCACGTGATGCG, the “relative binding free energy” value worked out at 0.05 kcal/mol.

With GGGGTCACGTGTCGAG, the “relative binding free energy” value is 0.14 kcal/mol.

Take AGGATCACGTGAGCGT: the “relative binding free energy” value worked out at 0.3 kcal/mol.

As for TAGGTCACGTGGATTG, the “relative binding free energy” value was determined as 0.24 kcal/mol.

Turning to TGTATCACGTGAGACG, the “relative binding free energy” value was determined as 0.31 kcal/mol.

Turning to GGTTCCACGTGGGGTA, the “relative binding free energy” value is -0.16 kcal/mol.

With TGATGCACGTGATAGG, the “relative binding free energy” value stood at 0.04 kcal/mol.

As to ACTTTCACGTGTTGGT, the “relative binding free energy” value is 0.08 kcal/mol.

In the case of TTTGCCACGTGTTTGA, the “relative binding free energy” value was -0.01 kcal/mol.

For CAGGGCACGTGGTATT, the “relative binding free energy” value was -0.05 kcal/mol.

As for TAAGTCACGTGTAAGT, the “relative binding free energy” value came to 0.06 kcal/mol.

In the case of GCATTCACGTGATGAT, the “relative binding free energy” value was found to be 0.37 kcal/mol.

On to GGAAGCACGTGGGTTG, for which the “relative binding free energy” value is -0.04 kcal/mol.

In the case of TGGTGCACGTGCTATA, the “relative binding free energy” value was -0.12 kcal/mol.

Take TTTATCACGTGCGTTA: the “relative binding free energy” value amounted to 0.1 kcal/mol.

For ATTTACACGTGAGTCT, the “relative binding free energy” value was 0.21 kcal/mol.

Take AGGGTCACGTGGGGCG: the “relative binding free energy” value was found to be 0.01 kcal/mol.

Turning to GGTTCCACGTGGATTG, the “relative binding free energy” value worked out at 0.2 kcal/mol.

With GACTTCACGTGGGGGG, the “relative binding free energy” value was 0.18 kcal/mol.

On to TGCTCCACGTGTTGGG, for which the “relative binding free energy” value was 0.02 kcal/mol.

On to TGAATCACGTGAAGAG, for which the “relative binding free energy” value amounted to 0.35 kcal/mol.

Turning to TTATTCACGTGACGAG, the “relative binding free energy” value is 0.35 kcal/mol.

With GGGTGCACGTGTCGTA, the “relative binding free energy” value amounted to 0.11 kcal/mol.

On to TTATGCACGTGTACAG, for which the “relative binding free energy” value was 0.05 kcal/mol.

On to ATGTACACGTGCATGT, for which the “relative binding free energy” value is -0.01 kcal/mol.

With ATGTTCACGTGAGAAA, the “relative binding free energy” value stood at 0.34 kcal/mol.

On to TTTGTCACGTGTGTAG, for which the “relative binding free energy” value came out at 0.12 kcal/mol.

On to AGGCGCACGTGGTGGG, for which the “relative binding free energy” value is -0.06 kcal/mol.

As for GTCAGCACGTGTGGTG, the “relative binding free energy” value was -0.03 kcal/mol.

As to AGTTGCACGTGTTACT, the “relative binding free energy” value is -0.01 kcal/mol.

Take TAAAGCACGTGTAAGG: the “relative binding free energy” value was 0.1 kcal/mol.

Regarding AAGGTCACGTGTGTTC, the “relative binding free energy” value came to 0.13 kcal/mol.

As to CTATGCACGTGGTGTA, the “relative binding free energy” value is -0.28 kcal/mol.

Take TAAAACACGTGGATTT: the “relative binding free energy” value amounted to 0.06 kcal/mol.

On to TAAGGCACGTGTGGAC, for which the “relative binding free energy” value was 0.13 kcal/mol.

Consider GTGTACACGTGTATTG, for which the “relative binding free energy” value came to 0.14 kcal/mol.

Take AGGTGCACGTGAGGGG: the “relative binding free energy” value worked out at 0.24 kcal/mol.

Take GATGTCACGTGGTGGG: the “relative binding free energy” value was 0.2 kcal/mol.

For the sequence GGCAGCACGTGTATTG, the “relative binding free energy” value came out at 0.13 kcal/mol.

As to GGCGTCACGTGGCTTT, the “relative binding free energy” value was 0.07 kcal/mol.

On to CATTACACGTGGTGTG, for which the “relative binding free energy” value stood at 0.1 kcal/mol.

As for TAGGACACGTGTGATT, the “relative binding free energy” value stood at 0.22 kcal/mol.

On to TTGAGCACGTGTATAT, for which the “relative binding free energy” value amounted to 0.03 kcal/mol.

For the sequence TGGGCCACGTGGTCAT, the “relative binding free energy” value is -0.2 kcal/mol.

On to TATGGCACGTGGTGGA, for which the “relative binding free energy” value came out at 0 kcal/mol.

Consider TTTGGCACGTGGCGGC, for which the “relative binding free energy” value was -0.27 kcal/mol.

With ATTGTCACGTGCTTGC, the “relative binding free energy” value amounted to 0.02 kcal/mol.

As for GTAGTCACGTGGACAG, the “relative binding free energy” value was found to be 0.15 kcal/mol.

On to CTAGTCACGTGAGGTG, for which the “relative binding free energy” value was 0.21 kcal/mol.
